Patent EP0305184A1, “Pyrimidines or their pharmaceutically acceptable salts thereof” (MITSUI PHARMACEUTICALS, INC., priority 1987, dated 1989)
Several values for one entry are separate records, joined by “and”; a condition that tells them apart may be missing. Equal entries are not always repeated. For some assays here: At least one read-out could not be matched to a standard name with certainty. For some assays here: At least one compound was matched to its structure with a doubt left.

Experiments:
neuro-2-a cells = experiment: Neurite outgrowth in neuro-2a neuroblastoma cells; format: cell-based, Mouse; details: mean ±S.D.
NS-20Y cells = experiment: Neurite appearance in NS-20Y neuroblastoma cells; format: cell-based, Mouse
[1] = concentration of the compound 0.3mM
[2] = concentration of the compound 1mM
[3] = concentration of the compound 3mM
[4] = concentration of the compound 0.03mM
[5] = concentration of the compound 0.1mM
[6] = concentration of the compound 10mM
[7] = concentration of the compound 5mM

| Compound | Number of cells having neurites with a length at least two times the diameter of cells/total number of cells, % (neuro-2-a cells; [1]) | Number of cells having neurites with a length at least two times the diameter of cells/total number of cells, % (neuro-2-a cells; [2]) [%] | Number of cells having neurites with a length at least two times the diameter of cells/total number of cells, % (neuro-2-a cells; [3]) [%] | Number of cells having neurites with a length at least two times the diameter of cells/total number of cells, % (neuro-2-a cells; [4]) [%] | also measured |
| --- | --- | --- | --- | --- | --- |
| CC(C)Nc1ncc2c(n1)N(C)C(=O)C2.Cl [Compound 102, 2-iso-Propylamino-5,6-dihydro-7-methyl-6-oxo(7H)pyrrolo[2,3-d]pyrimidine hydrochloride] | 5.3±1.3% | 15.1±2.0 | 30.5±0.3 |  |  |
| CC(C)Nc1ncc2c(n1)N(C)C(=O)C2.O=C(O)/C=C\C(=O)O [Compound 104, 2-iso-Propylamino-5,6-dihydro-7-methyl-6-oxo(7H)pyrrolo[2,3-d]pyrimidine maleate] | 7.2±0.7% | 12.3±3.3 | 28.4±1.4 | 4.6±0.7 |  |
| CN(C)c1ncc2c(n1)N(C)C(=O)C2 [Compound 108] |  | 5.7±1.1 | 14.4±1.3 | 3.0±1.0 | Number of cells having neurites with a length at least two times the diameter of cells/total number of cells, % (neuro-2-a cells; [5]): 3.9±1.6% |
| CN1C(=O)Cc2cnc(N3CCCC3)nc21 [Compound 112] | 4.7±0.4% | 10.2±1.6 | 20.9±1.3 |  |  |
| CN1C(=O)Cc2cnc(N3CCCCC3)nc21 [Compound 118] | 7.6±1.0% | 21.0±1.8 |  | 4.8±0.3 |  |
| CN1C(=O)Cc2cnc(N3CCOCC3)nc21 [Compound 122] |  | 4.0±1.2 | 15.7±1.3 |  | Number of cells having neurites with a length at least two times the diameter of cells/total number of cells, % (neuro-2-a cells; [5]): 4.4±1.1% |
| CN1C(=O)Cc2cnc(N3CCSCC3)nc21 [Compound 126] |  | 9.2±1.7 | 14.9±0.9 |  | Number of cells having neurites with a length at least two times the diameter of cells/total number of cells, % (neuro-2-a cells; [6]): 24.7±0.7% |
| CCCCNC(=O)N1CCN(c2ncc3c(n2)N(C)C(=O)C3)CC1 [Compound 130, 2-Butylaminocarbonylpiperazino-5,6-dihydro-7-methyl-6-oxo(7H)pyrrolo[2,3-d]pyrimidine] | 7.6±2.8% | 6.4±1.7 |  | 5.1±0.2 | Number of cells having neurites with a length at least two times the diameter of cells/total number of cells, % (neuro-2-a cells; [5]): 6.9±1.9% |
| CCN(CC)C(=O)N1CCN(c2ncc3c(n2)N(C)C(=O)C3)CC1 [Compound 132, 2-Diethylaminocarbonylpiperazino-5,6-dihydro-7-methyl-oxo(7H)pyrrolo[2,3-d]pyrimidine] | 7.1±1.6% | 12.0±2.0 |  | 4.3±0.4 | Number of cells in which neurites appeared/total number of cells (NS-20Y cells; first column (after 24 hours), 0.5mM): 0/51; Number of cells in which neurites appeared/total number of cells (NS-20Y cells; first column (after 24 hours), 1.0mM): 5/52; Number of cells in which neurites appeared/total number of cells (NS-20Y cells; second column (after 48 hours), 0.5mM): 8/51; Number of cells in which neurites appeared/total number of cells (NS-20Y cells; second column (after 48 hours), 1.0mM): 26/54 |
| CN1CCN(c2ncc3c(n2)N(C)C(=O)C3)CC1 [Compound 138] | 23.0±3.2% | 24.6±3.3 |  | 7.1±1.5 | Number of cells having neurites with a length at least two times the diameter of cells/total number of cells, % (neuro-2-a cells; [5]): 13.3±2.1% |
| CC1CCN(c2ncc3c(n2)N(C)C(=O)C3)CC1 [Compound 175] | 21.0±1.4% and 27.9±4.4% |  |  |  | Number of cells having neurites with a length at least two times the diameter of cells/total number of cells, % (neuro-2-a cells; [5]): 4.2±0.8% and 6.1±1.0%; Number of cells having neurites with a length at least two times the diameter of cells/total number of cells, % (neuro-2-a cells; concentration of the compound 0.2mM): 11.7±1.3%; Number of cells having neurites with a length at least two times the diameter of cells/total number of cells, % (neuro-2-a cells; concentration of the compound 0.5mM): 15.7±1.7% |
| CC(C)Nc1ncc2c(n1)CN(C)C2=O.Cl [Compound 204, 2-iso-Propylamino-5-oxo-6-methyl-5,6-dihydro(7H)pyrrolo[3,4-d]pyrimidine hydrochloride] |  |  | 9.4±1.7 |  | Number of cells having neurites with a length at least two times the diameter of cells/total number of cells, % (neuro-2-a cells; [7]): 20.1±5.1%; Number of cells having neurites with a length at least two times the diameter of cells/total number of cells, % (neuro-2-a cells; [6]): 22.8±1.1% |
| CN1Cc2nc(N3CCCC3)ncc2C1=O [Compound 216] |  |  | 6.7±0.9 |  | Number of cells having neurites with a length at least two times the diameter of cells/total number of cells, % (neuro-2-a cells; [6]): 6.5±3.3% |
| CN1Cc2nc(N3CCCCC3)ncc2C1=O [Compound 218] |  | 5.0±1.3 | 9.9±2.2 |  |  |
| CN1Cc2nc(N3CCOCC3)ncc2C1=O [Compound 232, 2-Morpholino-6-methyl-5-oxo-5,6-dihydro(7H)pyrrolo[3,4-d]pyrimidine] |  | 5.3±3.1 | 8.9±0.5 |  |  |
| CN1C(=O)Cc2cnc(N3CCN(c4ccncc4)CC3)nc21 [Compound 542, 2-(4-Pyridylpiperazino)-5,6-dihydro-7-methyl-6-oxo(7H)pyrrolo[2,3-d]pyrimidine p-toluenesulfonate] |  |  |  |  | Number of cells having neurites with a length at least two times the diameter of cells/total number of cells, % (neuro-2-a cells; concentration of the compound 0.01mM): 6.2±1.3(0.01mM). % |
| CC(C)Nc1ncccn1.O=P(O)(O)O [isaxonine, 2-isopropylaminopyrimidine phosphate, reference compound] |  |  |  |  | Number of cells having neurites with a length at least two times the diameter of cells/total number of cells, % (neuro-2-a cells; concentration of the compound 3mM, phosphate): 10.9±1.7(3mM). % and 7.6±2.7% and 8.0±1.2% and 15.7±4.1(3mM). % and 17.4±4.2% and 15.8±2.2(3mM). % and 10.5±4.9% and 9.6±1.7%; Number of cells having neurites with a length at least two times the diameter of cells/total number of cells, % (neuro-2-a cells; [7]): 22.2±3.1(5mM). %; Number of cells having neurites with a length at least two times the diameter of cells/total number of cells, % (neuro-2-a cells; concentration of the compound 10mM, listed as isoxonine, phosphate): 30.8±2.9(10mM). %; Number of cells having neurites with a length at least two times the diameter of cells/total number of cells, % (neuro-2-a cells; concentration of the compound 20mM): 8.0±1.5% |
